Experimental data as given in PubChem BioAssay AID1479 (National Center for Advancing Translational Sciences (NCATS), 2009).
In all, about 280,000 compounds went through this assay and about 820 (0.29%) were called active. Inconclusive results, whose numbers are uncertain, are shown with a selection of clear calls. Calls follow the shape of the dose curve; as a rule, active = well fitted curve in either direction with a large enough effect; inconclusive = small, poorly fitted or top-dose-only effect; inactive = flat fitted curve, though single readings scatter. No potency is given beside an inconclusive call; the fits are too rough.

Test: Total Fluorescence Counterscreen for Inhibitors of the Interaction of Thyroid Hormone Receptor and Steroid Receptor Coregulator 2
Conditions: TRb/SRC2 Texas Red total fluorescence interference; series mostly up to 106 µM
In short: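 Human TRβ ligand-binding domain (0.6 uM) and Texas Red SRC2 peptide (20 nM) in Tris buffer with 1 uM T3 and 5% DMSO were incubated with pinned compound for 5 hr at ambient temperature. Total fluorescence was computed as S + 2P (555/632 nm).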
% is scaled to controls: 0 for no effect and ±100 for the full control effect; potency is read from the fitted curve at half-maximal effect; tags tell the direction and shape of the fitted curve or compound fluorescence and quenching.

**Q.** Which Potency does the source give for `CCOc1cc2[nH]c(=O)n(Cc3ccc(C(=O)N4CCN(c5ccccc5)CC4)cc3)c(=O)c2cc1OCC` here?
**A.** inconclusive [falling, partial curve, poor fit]

**Q.** For `COc1ccc(NC(=O)c2oc3ccc(S(=O)(=O)N4CCCCC4)cc3c2C)cc1Cl`, which Potency is on record?
**A.** inactive

**Q.** Which Potency does the source give for `Cn1c(O)c(N=NC(=O)CNC(=O)c2ccco2)c2ccccc21` here?
**A.** inconclusive [falling, full curve, poor fit]

**Q.** With `Cc1ccc(N=Nc2cc(C)ccc2N)cc1` as the molecule, how does the Potency read?
**A.** inactive

**Q.** With `O=[N+]([O-])c1ccc(-c2nc(-c3ccc(F)cc3)c(-c3ccncc3)[nH]2)cc1` as the molecule, how does the Potency read?
**A.** inconclusive [quencher, full curve]

**Q.** With `Cc1ccc(Cl)cc1N(C)C(=O)Cn1nc(Cc2cccnc2)c2ccccc2c1=O` as the molecule, how does the Potency read?
**A.** inactive

**Q.** Which Potency does the source give for `CCCn1c(SCc2nc(-c3ccc(OC)cc3OC)no2)nnc1-c1ccc(Cl)cc1` here?
**A.** inconclusive [quencher, full curve]

**Q.** Which Potency does the source give for `CCC1CN(C(=O)N2CCC(C(=O)NCCc3ccc(Cl)cc3)CC2)c2ccccc2O1` (stereo unspecified) here?
**A.** inconclusive [falling, full curve, poor fit]

**Q.** With `Cn1c(SCc2ccc(F)cc2)nc2ccc(C(=O)NCc3ccc(Cl)cc3)cc21` as the molecule, how does the Potency read?
**A.** inconclusive [falling, full curve, poor fit]

**Q.** With `CCc1ccc(CNC(=O)CN2C(=O)c3cccnc3Oc3ccc(Cl)cc32)cc1` as the molecule, how does the Potency read?
**A.** inconclusive [falling, full curve, poor fit]

**Q.** For `C/C(=N\Nc1nnc2c3ccccc3n(C)c2n1)c1ccc(C)o1`, which Potency is on record?
**A.** inactive

**Q.** For `O=C1O[C@@H]([C@@H](O)CO)[C@@H](O)[C@H]1O`, which Potency is on record?
**A.** inconclusive [quencher, full curve]

**Q.** For `COc1c(C)cc(S(=O)(=O)NC2CC(C)(C)NC(C)(C)C2)c(C)c1C`, which Potency is on record?
**A.** inactive

**Q.** Which Potency does the source give for `COc1ccc2[nH]c3c(N4CCC(O)(c5cccc(C(F)(F)F)c5)CC4)ncnc3c2c1` here?
**A.** inactive

**Q.** With `Cc1cccc(OCCc2nnc(N)s2)c1C` as the molecule, how does the Potency read?
**A.** inactive

**Q.** For `COc1ccc(-n2cc(C(=O)OCc3ccc(F)c(F)c3)c3ccccc3c2=O)cc1`, which Potency is on record?
**A.** active: 0.0794 µM [quencher]

**Q.** Which Potency does the source give for `CC(C)CN(C(=O)CN1CCN(c2ccc(F)cc2)CC1)c1c(N)n(CC(C)C)c(=O)[nH]c1=O` here?
**A.** inconclusive [falling, partial curve, poor fit]

**Q.** With `O=C1OCCC1N(C(=O)C1CC1)c1cccc(Cl)c1` (stereo unspecified) as the molecule, how does the Potency read?
**A.** inactive

**Q.** For `CCCCNC(=O)c1nn(-c2ccc(C)cc2)c(=O)c2c1c1ccccc1n2C`, which Potency is on record?
**A.** inactive

**Q.** With `Cc1ccc(-n2ncc(C(=O)Nc3ccc4c(c3)OCCO4)c2C2CCN(C(=O)OC(C)(C)C)CC2)cc1` as the molecule, how does the Potency read?
**A.** inconclusive [falling, partial curve, poor fit]

**Q.** For `Cc1ccc(-c2nc(CS(=O)(=O)CC(=O)N3CCN(c4cccc(C)c4C)CC3)c(C)o2)cc1`, which Potency is on record?
**A.** inconclusive [falling, full curve, poor fit]

**Q.** With `CCCSc1ncc(Cl)c(C(=O)N(Cc2ccc(N(C)C)cc2)C2CCS(=O)(=O)C2)n1` (stereo unspecified) as the molecule, how does the Potency read?
**A.** active: 4.47 µM [quencher]

**Q.** Which Potency does the source give for `Cc1cccc(-c2nsc(SCC(=O)c3ccc(Cl)cc3)n2)c1` here?
**A.** inconclusive [falling, full curve, poor fit]

**Q.** With `CCc1cc2c(nc1CC)CCN(CC/C(C)=N/O[C@@H]1O[C@H](COC(C)=O)[C@H](OC(C)=O)[C@H](OC(C)=O)[C@H]1OC(C)=O)C2` as the molecule, how does the fluorescence change, negative = quenching read?
**A.** inactive: 1.92% [at 11.2 µM]

**Q.** With `CC(=O)OC[C@H]1O[C@@H](ON=C(C)C)[C@H](OC(C)=O)[C@@H](OC(C)=O)[C@H]1OC(C)=O` as the molecule, how does the Potency read?
**A.** inconclusive [falling, partial curve, poor fit]

**Q.** Which Potency does the source give for `Cc1cccc(OC(=O)c2cc(-c3ccc4c(c3)OCCO4)on2)c1` here?
**A.** inconclusive [falling, partial curve, poor fit]

**Q.** For `COCCc1nn2c(=O)cc(COC(=O)COc3ccc(F)cc3)nc2s1`, which Potency is on record?
**A.** inactive

**Q.** With `O=C(CCCN1C(=O)/C(=C/c2ccccc2Cl)SC1=S)NNC(=O)c1ccccc1Cl` as the molecule, how does the Potency read?
**A.** inconclusive [falling, full curve, poor fit]

**Q.** Which Potency does the source give for `COc1ccc(/C=C/C(=O)c2ccccc2)cc1Cn1nnc2ccccc21` here?
**A.** inconclusive [quencher, full curve]

**Q.** With `O=C(CSC1=Nc2ccccc2N=C(c2ccc(F)cc2)C1)NCc1ccccc1` as the molecule, how does the Potency read?
**A.** inconclusive [quencher, full curve]

**Q.** For `COc1ccccc1NC(=S)NC1CCC(CC2CCC(NC(=S)Nc3ccccc3OC)CC2)CC1` (stereo unspecified), which Potency is on record?
**A.** inconclusive [falling, partial curve, poor fit]

**Q.** For `N#Cc1c(N2CCOCC2)nc(N2CCCCC2)c2c1CCN(C1CCCCC1)C2`, which Potency is on record?
**A.** inactive

**Q.** Which Potency does the source give for `COc1ccc(-n2c(=O)c3c4c(sc3n(Cc3cc(C)ccc3C)c2=O)CN(C(C)=O)CC4)c(OC)c1` here?
**A.** inconclusive [falling, full curve, poor fit]

**Q.** Which Potency does the source give for `CCCn1cc(S(=O)(=O)c2cc(C)ccc2C)c(=O)c2cc(F)c(N3CCOCC3)cc21` here?
**A.** active: 25.1 µM [quencher]

**Q.** With `CCOC(=O)/C=C1\SCC(=O)N1CC(=O)NC(C)c1ccc(F)cc1` (stereo unspecified) as the molecule, how does the Potency read?
**A.** inconclusive [rising, single point]

**Q.** With `O=C(O)C1Nc2c(O)cccc2C2C=CCC12` (stereo unspecified) as the molecule, how does the Potency read?
**A.** inconclusive [quencher, partial curve]

**Q.** Which Potency does the source give for `COC(=O)Cc1cc(=O)n(-c2nc3ccccc3[nH]2)[nH]1` here?
**A.** inactive

**Q.** For `Cc1ccc(C(=O)NN2C(=O)C3C4c5ccccc5C(c5ccccc54)[C@@H]3C2=O)cc1` (stereo partly specified), which Potency is on record?
**A.** inconclusive [falling, full curve, poor fit]

**Q.** Which Potency does the source give for `Cc1cc(S(=O)(=O)Nc2ccc(-c3ccc(N4CCCCC4)nn3)cc2)c(C)cc1Cl` here?
**A.** inconclusive [quencher, full curve]

**Q.** For `Cc1oc2ncn(C)c(=O)c2c1C(=O)NC(C)c1ccccc1` (stereo unspecified), which Potency is on record?
**A.** active: 0.282 µM [quencher]

**Q.** For `O=C(Nc1cc2c(cc1C(=O)c1ccccc1Cl)OCCO2)c1ccc(Br)cc1`, which Potency is on record?
**A.** inconclusive [falling, full curve, poor fit]
